Reference: patent publication US20080261891A1, “COMPOSITIONS AND METHODS FOR USING SYRINGOPEPTIN 25A AND RHAMNOLIPIDS” (Utah State University, priority 2007, published 2008)
Where a SMILES comes first, the peptide text is derived from it. Bridges are numbered along the chain shown (N, C = ends). [ ]: non-standard residue; d: D form. The star is where a group is joined. ξ: configuration not given here. Decanoyl(3ξ-OH) = CCCCCCCC(O)CC(=O)*; Dab = NCC[CH](N)C(=O)O; Dhb = C/C=C(\N)C(=O)O

System: yeast: Brettonomyces bruxellensis, Candida vini, Pichia fermentans, Saccharomyces luduigi, Metschinikowia puicherrima, Kloeckera apiculata
Format: cell-based
Details: any strain of yeast tested; data not shown

**Q.** For `C/C=C(\NC(=O)C(C)NC(=O)C(C)NC(=O)C(CC(C)C)NC(=O)C(NC(=O)C(C)NC(=O)C(C)NC(=O)C(NC(=O)C1CCCN1C(=O)/C(=C/C)NC(=O)CC(O)CCCCCCC)C(C)C)C(C)C)C(=O)NC(C(=O)N/C(=C\C)C(=O)NC(C)C(=O)NC(C(=O)NC(C)C(=O)NC(C)C(=O)N/C(=C\C)C(=O)NC1C(=O)NC(CO)C(=O)NC(C)C(=O)NC(C(C)C)C(=O)NC(C)C(=O)NC(CCN)C(=O)NC(CCN)C(=O)NC(Cc2ccc(O)cc2)C(=O)OC1C)C(C)C)C(C)C` (stereo not shown) [SP 25A, syringopeptin 25A] ({Decanoyl(3ξ-OH)}-[Dhb]PVAAVLAA[Dhb]V[Dhb]AVAA[Dhb]TSAVA[Dab][Dab]Y; ester 18-C; configuration not given here), which “growth inhibition of yeast” value is on record?
**A.** did not inhibit the growth
